Measured values from PubChem BioAssay AID504333 (National Center for Advancing Translational Sciences (NCATS), 2011).
The campaign covered roughly 360,000 compounds. About 16,000 (4.4%) were called active. Inconclusive means that the source gave no clear call. Such entries were picked first, then a sample of the others. Calls follow the shape of the dose curve; as a rule, active = well fitted inhibition curve with a large enough effect; inconclusive = small, poorly fitted or top-dose-only effect; inactive = no such curve, though single readings can be large or run the other way. A potency beside an inconclusive call is a rough fit, not a confirmed value.

Molecular target: Bromodomain adjacent to zinc finger domain protein 2B (Homo sapiens) (UniProt Q9UIF8)
Test: qHTS Assay for Inhibitors of BAZ2B; also: nearly all actives have a fitted effect of over 60% in size
Conditions: AlphaScreen BAZ2B-H3K14Ac peptide displacement; activity change, negative = inhibition: at 114 µM (top of the series) unless noted
In short: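 Complex of BAZ2B and biotin-H3K14Ac (50 nM apiece) forms over 30 min at RT, then faces library compounds up to 110 uM for another 30 min; AlphaScreen beads added, 20 min dark incubation, luminescence read.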
% is scaled to controls: 0 for no effect and ±100 for the full control effect; potency is read from the fitted curve at half-maximal effect; tags tell the direction and shape of the fitted curve.

UniProt Q9UIF8, sequence (Q9UIF8 whole entry, looked up, the tested form may be a part): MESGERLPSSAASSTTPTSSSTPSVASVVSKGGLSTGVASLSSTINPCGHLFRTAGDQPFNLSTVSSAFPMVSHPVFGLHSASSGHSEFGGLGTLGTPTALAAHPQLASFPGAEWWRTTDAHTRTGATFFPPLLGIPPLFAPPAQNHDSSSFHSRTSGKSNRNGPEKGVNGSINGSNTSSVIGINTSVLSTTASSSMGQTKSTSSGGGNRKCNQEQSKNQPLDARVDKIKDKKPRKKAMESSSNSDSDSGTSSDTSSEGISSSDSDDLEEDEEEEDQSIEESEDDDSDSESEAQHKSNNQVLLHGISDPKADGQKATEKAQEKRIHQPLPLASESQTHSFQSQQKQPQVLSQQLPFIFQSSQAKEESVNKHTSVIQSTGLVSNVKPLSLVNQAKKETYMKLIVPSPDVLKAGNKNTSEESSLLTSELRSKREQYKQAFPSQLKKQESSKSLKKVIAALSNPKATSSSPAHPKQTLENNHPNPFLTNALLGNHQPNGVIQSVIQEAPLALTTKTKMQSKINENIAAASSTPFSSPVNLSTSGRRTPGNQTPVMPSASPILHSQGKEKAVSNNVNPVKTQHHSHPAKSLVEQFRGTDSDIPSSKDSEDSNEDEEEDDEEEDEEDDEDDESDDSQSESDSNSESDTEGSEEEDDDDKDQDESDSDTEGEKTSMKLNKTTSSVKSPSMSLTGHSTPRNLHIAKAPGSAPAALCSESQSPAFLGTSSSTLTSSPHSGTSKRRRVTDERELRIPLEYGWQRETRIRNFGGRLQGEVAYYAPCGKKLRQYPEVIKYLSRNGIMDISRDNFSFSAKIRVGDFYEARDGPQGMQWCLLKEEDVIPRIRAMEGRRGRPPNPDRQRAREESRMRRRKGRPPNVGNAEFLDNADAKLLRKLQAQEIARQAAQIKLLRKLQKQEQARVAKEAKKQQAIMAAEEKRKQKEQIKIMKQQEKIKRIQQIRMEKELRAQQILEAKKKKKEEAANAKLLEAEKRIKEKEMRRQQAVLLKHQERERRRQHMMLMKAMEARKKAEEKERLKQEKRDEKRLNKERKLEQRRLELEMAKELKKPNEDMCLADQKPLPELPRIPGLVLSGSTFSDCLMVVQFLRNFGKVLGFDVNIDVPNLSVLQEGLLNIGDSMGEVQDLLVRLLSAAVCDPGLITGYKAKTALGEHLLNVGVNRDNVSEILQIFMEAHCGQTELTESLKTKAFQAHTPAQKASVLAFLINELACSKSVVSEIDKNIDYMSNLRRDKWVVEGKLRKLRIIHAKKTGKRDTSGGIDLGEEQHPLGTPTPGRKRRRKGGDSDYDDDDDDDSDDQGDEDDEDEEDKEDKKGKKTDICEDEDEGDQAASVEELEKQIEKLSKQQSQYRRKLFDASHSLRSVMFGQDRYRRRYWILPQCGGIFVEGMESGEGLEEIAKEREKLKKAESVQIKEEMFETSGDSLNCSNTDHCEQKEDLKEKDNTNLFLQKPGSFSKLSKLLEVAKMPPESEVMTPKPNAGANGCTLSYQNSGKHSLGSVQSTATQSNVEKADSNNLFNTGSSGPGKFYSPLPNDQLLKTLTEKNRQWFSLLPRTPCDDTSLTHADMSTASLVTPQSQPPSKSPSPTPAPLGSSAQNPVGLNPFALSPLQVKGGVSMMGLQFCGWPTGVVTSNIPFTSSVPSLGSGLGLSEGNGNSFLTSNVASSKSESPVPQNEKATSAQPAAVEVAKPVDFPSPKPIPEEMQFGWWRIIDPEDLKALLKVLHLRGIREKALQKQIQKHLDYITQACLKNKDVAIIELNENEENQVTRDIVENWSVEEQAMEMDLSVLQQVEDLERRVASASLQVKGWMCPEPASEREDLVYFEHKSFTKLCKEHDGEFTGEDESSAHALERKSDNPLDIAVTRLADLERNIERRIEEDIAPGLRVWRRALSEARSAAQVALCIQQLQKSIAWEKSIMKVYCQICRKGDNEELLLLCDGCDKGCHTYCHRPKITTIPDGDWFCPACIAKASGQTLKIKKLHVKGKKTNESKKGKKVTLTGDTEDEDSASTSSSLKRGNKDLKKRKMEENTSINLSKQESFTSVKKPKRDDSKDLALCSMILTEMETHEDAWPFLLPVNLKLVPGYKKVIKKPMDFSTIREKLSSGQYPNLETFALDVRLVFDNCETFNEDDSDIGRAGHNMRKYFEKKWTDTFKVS

Row | SMILES | Potency | activity change, negative = inhibition
1 | Fc1ccc(C2=NNC(=NCc3ccccc3)SC2)cc1F | inconclusive: 79.4 µM [inhibitor, partial curve] | 
2 | COc1cccc(CNC(=O)C2CCN(C(=O)c3sccc3-n3cccc3)CC2)c1 | inconclusive: 70.8 µM [inhibitor, single point] | 
3 | COc1ccc(CCNC(=O)c2ccc(-c3ccc([N+](=O)[O-])cc3Cl)o2)cc1OC | inconclusive: 28.2 µM [inhibitor, full curve] | 
4 | Cc1ccc(NC(=O)c2nccnc2C(=O)O)cc1C | inconclusive: 79.4 µM [inhibitor, single point] | 
5 | CN(C)c1ccc(CNC(=O)CN2C(=O)CCn3nc(-c4cn(C)c5ccccc45)cc32)cc1 | active: 44.7 µM | 
6 | Fc1ccc(-n2cc(CNCCc3cccnc3)c(-c3ccccc3Cl)n2)cc1 | inconclusive: 50.1 µM [inhibitor, partial curve] | 
7 | CC(=O)c1ccc(OCC(=O)c2cc(C)n(-c3ccc4c(c3)OCO4)c2C)cc1 | inconclusive: 70.8 µM [inhibitor, single point] | 
8 | Cc1ccc(Nc2ccc(S(=O)(=O)N3CCOCC3)cc2[N+](=O)[O-])cc1C | active: 11.2 µM | 
9 | COc1cc(CNCc2cc(OC)ccc2OC)cc(OC)c1 | inconclusive: 44.7 µM [inhibitor, partial curve] | 
10 | COc1cc(CN2CCCC(C(=O)c3ccc(C(C)(C)C)cc3)C2)cc(OC)c1O (stereo not given) | inconclusive: 79.4 µM [inhibitor, single point] | 
11 | O=C(COc1ccccc1)NCC(c1ccco1)N1CCN(c2ccc(F)cc2)CC1 (stereo not given) | inconclusive: 50.1 µM [inhibitor, partial curve] | 
12 | CCOc1ccc(NC(=S)N2CCN(S(=O)(=O)c3ccc(C)cc3)CC2)cc1 | inconclusive: 79.4 µM [inhibitor, partial curve] | 
13 | Cc1ccc(Cl)c(OCC(=O)NCC(c2cccs2)N2CCOCC2)c1 (stereo not given) | inactive | 
14 | O=C(/C=C/c1ccco1)NCC1COc2ccccc2O1 (stereo not given) | inconclusive: 31.6 µM [inhibitor, full curve, poor fit] | 
15 | NC(=O)C1CCN(C(=O)CN(c2cccc(Cl)c2)S(=O)(=O)c2ccccc2)CC1 | inactive | 
16 | CCC1Sc2ccc(S(=O)(=O)CCC(=O)NCc3ccc(C)o3)cc2NC1=O (stereo not given) | inconclusive: 56.2 µM [inhibitor, partial curve] | 
17 | COc1ccc(-n2c(SCC(=O)NC3CCCCC3)nc3c([nH]c4ccccc43)c2=O)cc1 | inactive | 
18 | S=C(c1ccc(-c2cc(Cl)ccc2Cl)o1)N1CCCCC1 | active: 28.2 µM | 
19 | CCOc1ccc(CN2CCSCC2)cc1 | inconclusive: 89.1 µM [inhibitor, single point] | 
20 | CCn1c(C)cc(/C=C2/NC(=O)N(CC(=O)Nc3cccc(C)c3)C2=O)c1C | inactive | 
21 | Cn1c(=O)c2c(-c3ccccc3Br)n(Cc3ccccc3)cc2n(C)c1=O | inconclusive: 50.1 µM [inhibitor, partial curve] | 
22 | C=CCOc1ccc(/C=C2\SC(N)=NC2=O)cc1OC | inactive | 
23 | Cc1ccc(NC(=O)CCc2nnc3ccc(NCc4ccco4)nn23)cc1F | inconclusive: 100 µM [inhibitor, partial curve] | 

Row | SMILES | Potency | activity change, negative = inhibition
24 | CC1=C(C#N)c2nc(N)c(C#N)c(C)c2/C1=C\c1ccc(OCC(=O)O)c(Cl)c1 | active: 50.1 µM | 
25 | CCc1nn(-c2ccccc2)c(=S)c2ccccc12 | inconclusive: 35.5 µM [inhibitor, partial curve] | 
26 | CCOC(=O)c1[nH]cnc1C(=O)NC1CCCCC1 | active: 50.1 µM | 
27 | COC(=O)c1cc(OC)c(OC)cc1NC(=S)N1CCN(c2ccccc2)CC1 | inconclusive: 70.8 µM [inhibitor, single point] | 
28 | OC1CCCN(Cc2ccccc2)C1 (stereo not given) | inconclusive: 89.1 µM [inhibitor, single point] | 
29 | CCSc1nc2c(c(=O)[nH]1)C(C(C)C)C(C#N)=C(N)O2 (stereo not given) | inconclusive: 89.1 µM [inhibitor, single point] | 
30 | CC(C)(C)c1nc(SCC(=O)NCc2ccco2)c2ccccc2n1 | inconclusive: 79.4 µM [inhibitor, single point] | 
31 | CCOC(=O)c1[nH]c(C)c(C(=O)OCc2ccccc2F)c1C | inactive | 
32 | CCOc1cc(C2CC(=O)Nc3c2c(=O)nc(SCc2cccc(Cl)c2)n3C)ccc1O (stereo not given) | inconclusive: 79.4 µM [inhibitor, single point] | 
33 | COC(=O)c1ccc(/C=C2/C(=O)Oc3ccccc32)cc1 | inconclusive: 79.4 µM [inhibitor, single point] | 
34 | NS(=O)(=O)c1ccc(NC(=O)CSc2ncnc3ccccc23)cc1 | active: 79.4 µM | 
35 | O=C(NCCSCc1c(F)cccc1Cl)c1ccco1 | inactive | 
36 | COc1ccc(N2CCN(C(=O)CC(NC(N)=O)c3cccc(Oc4ccccc4)c3)CC2)cc1 (stereo not given) | inconclusive: 39.8 µM [inhibitor, partial curve] | 
37 | COc1ccc(CCn2c(N)c(S(=O)(=O)c3cccs3)c3nc4ccccc4nc32)cc1OC | inactive | 
38 | Cc1ccc(Cn2ccnc2SCC(=O)Nc2ccc3c(c2)OCCO3)cc1 | inconclusive: 28.2 µM [inhibitor, partial curve] | 
39 | CC(C)(C)CN1CCNC(=O)C1CC(=O)NCCc1ccccc1F (stereo not given) | inconclusive: 79.4 µM [inhibitor, single point] | 
40 | O=C(NCc1ccco1)c1nc2nc(-c3cccs3)cc(C(F)(F)F)n2n1 |  | inconclusive: -41.8% [inhibitor]
41 | COc1ccc(NC(=S)Nc2ccc(C)c(Cl)c2)cc1OC | inconclusive: 79.4 µM [inhibitor, single point] | 
42 | O=C(Nc1ccon1)c1ccc(N2CCCCC2)c([N+](=O)[O-])c1 | inconclusive: 44.7 µM [inhibitor, partial curve] | 
43 | N#CC1=C(N)C(C#N)(C#N)C(c2ccncc2)C2CN(C(=O)OCc3ccccc3)CC=C12 (stereo not given) | inactive | 
44 | Cc1cccc(Nc2nc(N)nc(CCl)n2)c1C | inconclusive: 79.4 µM [inhibitor, single point] | 
45 | CNC(=O)COc1coc(CN2CCN(c3ccc(OC)cc3)CC2)cc1=O | inconclusive: 79.4 µM [inhibitor, single point] | 
